According to the supplement of paper PMC3334620:
Whole data set: some 33,000 sequences, median “E-score (-0.5 to 0.5)” near -0.016, cut for the highest 2% near 0.31. This is one part of the list.

The sequences below were run against Cst6 (UniProt P40535) (assay: PBM E-score (8-mer binding enrichment) (E-score (-0.5 to 0.5)); higher = stronger / more preferred TF binding; most listed sequences are background and not binding sites). Conditions: protein concentration: 200 nM; construct: GST-DNA-binding domain.
Outline: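 Bound GST-tagged yeast transcription factors, applied at about 100-200 nM to double-stranded universal all-10-mer Agilent arrays, were detected with fluorescent anti-GST. Scans were normalised with masliner. A modified Wilcoxon-Mann-Whitney statistic, the E-score, was assigned to each ungapped eight-base word pooled with its reverse complement by the Universal PBM Analysis Suite.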

Sequence	PBM E-score
CTTCCCTA	-0.205
ACTCCAAA	0.0486
AGTTGCCA	-0.192
ACATAGGC	-0.024
CCGATGTA	-0.0196
CTTCTACC	-0.282
ATAGCCAC	0.0409
TATAGAAA	0.152
AAAGTACC	-0.0753
AGACCGTC	-0.127
CCTCCGCG	-0.278
GTTCGCAA	0.181
AATATCAG	0.043
ACTATAGT	0.166
CTGCGGGC	-0.232
CTGCGGCC	-0.0683
GTCTCGCA	-0.284
GAAGTACC	-0.184
GGCCCCCC	-0.376
GAAATAGA	0.196
CAGTCGTA	-0.101
AATCGGGT	0.191
ACAACACC	0.0839
CTTAAAAC	0.155
CATTAAAG	0.184

Sequence	PBM E-score
CGCCGGCG	0.111
CGCTAGAC	-0.347
ATCCAAAA	0.0959
GCTTCAGA	-0.213
CCATAAGA	0.0383
CTCATGAG	0.079
GAACTAGC	-0.22
AAGGCCTG	-0.193
AGCGGGGC	-0.149
ACCATACG	0.086
AGCGAATG	-0.211
GGTTTACA	0.0693
AAACATGC	-0.0218
AGTAACGC	0.0516
ATTAGCTG	0.0625
AAAGTTTA	0.188
TAATTACA	0.277
CGGGCGCA	-0.173
GATGAAAC	0.0812
GCGTCACC	0.448
CAGAAACG	0.149
CTGAAATA	0.0963
AACCTTCC	-0.12
ATCGAAAA	0.219
AATGAGAG	-0.025

Sequence	PBM E-score
AACACTGT	-0.0731
ATTGGCCC	-0.36
CCGCGGAC	-0.12
AACTTAAA	0.202
ATACTACA	0.186
CACCAGCG	-0.0634
AACGTTTC	-0.115
CAGTAAAG	0.234
GGACGACA	0.0793
CGCAGAAA	0.0112
GGTAGTGA	0.0298
CACCAACG	-0.0835
AAAGCTAC	0.00086
CTCCTCTA	-0.232
TCGTCTCA	-0.0927
GCATTCGA	-0.00988
CCCCCGCG	-0.156
CAGCAAAA	0.0508
CTCTTACC	0.1
AGCAGCCT	-0.118
AAATTTCG	0.095
CCGTAAAA	0.0767
GGGTAAAA	0.147
GACGGAAA	0.116
CTTGCCCA	-0.202

Sequence	PBM E-score
AGTCAGTG	-0.0966
AGGAAACC	-0.0455
ACACGGGG	-0.0685
ATACCTGC	-0.151
ATCGTAAT	0.296
AGCTAATG	-0.0129
CCATTCAA	0.0741
CGAGACAA	-0.11
ACTTAACA	0.128
AGCTCACG	-0.0988
ACAAAGCA	0.224
CGCTACAC	-0.0708
CGCCGCGC	0.357
TATCGCAA	-0.0308
CAGAAGCC	-0.016
GAGTGAAC	-0.0925
GGAGACAC	-0.0358
CACTATAC	0.087
AATGTGTA	0.046
AGGGACGG	-0.197
GCAGCGAA	-0.0469
ATTCTAGG	-0.0115
AGGAACAG	-0.204
CTACAGAC	-0.184
ATCCTAAT	0.0626

Sequence	PBM E-score
ACCCAGCA	-0.177
ATCATCTA	0.151
CCTTGTTC	-0.124
CACCCAGA	0.0656
CATTGGCG	-0.093
ATAGTGAC	0.392
ATGGTTGC	-0.223
ATGACGTA	0.498
CAAGAACG	0.0684
ATGTTTTC	0.223
ATCAAATA	0.0992
GATGTGCA	0.00759
ACAGCATA	0.138
AGTTTACC	-0.0624
ACCGGCAA	-0.186
GACGACAC	0.181
AACAGCCG	0.0115
CAGATGAA	0.0452
AATGTCAG	-0.00168
CAAAGATC	0.049
ACTCTCTA	-0.144
GCCGACGC	-0.0913
CCTAGGCC	-0.216
AGATTCAG	-0.163
CAAAGGGG	-0.0611

Sequence	PBM E-score
AGCCAGCG	-0.245
CGGAGTGA	0.137
ACTCTCCT	-0.202
ATACAAGG	0.141
ATGCATCA	0.372
AAACGCCC	-0.0366
CACAACTC	0.123
CAAACAAG	0.00823
GCATCTCA	0.124
GCAGCGCA	-0.161
CTTTATCA	0.00948
ACTCTATG	0.012
ACGGTCAG	-0.051
AGGAAACG	-0.0151
CCCGTAAC	-0.163
TGAGGCAA	0.164
ACATTGAG	-0.0338
GACTTAGA	-0.0611
TTACATAA	0.433
CACCCTTC	-0.285
TCCGCGGA	-0.0627
CAACAAAA	0.168
CTCCGGAG	-0.088
ATGCTATC	-0.057
CTAAGTGA	0.184

Sequence	PBM E-score
CAGTTACG	0.17
TCCAGAAA	0.216
CACTTGCA	0.015
CAAGGCGA	-0.128
GGTGAGAA	0.0817
ACTCGATC	-0.0157
ACTGTGAA	-0.0151
ATACCCGA	-0.132
AGAGTAGG	0.0169
ACTCTTGC	-0.0303
CGCTTCAC	-0.0447
GGGGAACA	-0.346
CGACCCAA	0.0872
GAATTGTC	0.0596
ATCTGAGG	0.0216
CTCCCGCC	-0.0921
AGCAGAGG	-0.307
ACGTTCTC	0.0236
CCTCGCAA	-0.0503
GCGCGCCA	0.179
ACATCTAA	0.0827
AACCCTCG	-0.0978
